The source gives no read counts; variants with many changes may rest on few reads.
B1: LINE1-full (parent)
chain: UACGUAGGUGGUUUUCCCCUGAUAGUGCUAAGGGGGCCUGGAAGUUUGGACUGGGCAGAGCUCAACACAGCGUGGCAAAGUGGCUGUGGCUAGACUGCCUCUCUGGAUUCCUCGUCACUCAGCAGGGCAUCUCUGAGAGAAAUGCC

Variants of: B1
Assay: self-cleavage, relative activity (ratio to wild type); higher = more cleavage; in vitro, sequencing; the parent is a self-cleaving ribozyme

| Variant | self-cleavage |
| --- | --- |
| UACGUAGGUGGUCUUCCCCUGAUAGUGCUAAGGGGGCCUGGAAGUUUGGACUGGGCAGAGCUCAACACAGCGUGGCAAAGUGGCUGUGGCUAGACUGCUUCUCUGGAUUCCUCGUCACUCAGCAGGGCAUCUCUGGGAGAAAUGCC | 0.8 |
| UACGUAGGUGGUCUUCCCCUGAUAGUGCUAAGGGGGCCUGGAAGUUUGGACUGGGCAGAGCUCAACACAGCGUGGCAAAGUGGCUGUGGCUGGACUGCCUCUCUGGAUUCCUCGUCACUCUGCAGGGCAUCUCUGAGAGAAAUGCC | 0.2 |
| UACGUAGGUGGUCUUCCCCUGAUAGUGCUAAGGGGGCCUGGAAGUUUGGACUGGGCAGAGCUCAACACAGCGUGGCAAAGUGGCUGUGGCUAGACUGACUCUCUGGAUUCCUCGCCACUCAGCAGGGCAUCUCUGAGAGAAAUGCC | 0.36 |
| UACGUAGGUGGUCUUCCCCUGAUAGUGCUAAGGGGGCCUGGAAGUUUGGACUGGGCAGAGUUCGACACAGCGUGGCAAAGUGGCUGUGGCUAGACUGCCUCUCUGGAUUCCUCGUCACUCAGCAGGGCAUCUCUGAGAGAAAUGCC | 0.08 |
| UACGUAGGUGGUCUUCCCCUGAUAGUGCUAAGGGGGCCUGGAAGUUUGGACUGGGCAGAGCUCAACACAGCGUGGCAAAGUGGCUGUGGCUAGACUGCCUCUCUGGGUUCCACGUCACUCAGCAGGGCAUCUCUGAGAGAAAUGCC | 1.47 |
| UACGUAGGUGGUCUUCCCCUGAUAGUGCUAAGGGGGCCUGGAAGUUUGGACUGGGCAGAGCUCAACACAGCGUGGUAAAGUGGCUGUGGCUAGACUGCCUCUCUGGAUUCCUCGUCACUCAGCAGGGCAUCUCUGAGGGAAAUGCC | 1.84 |
| UACGUAGGUGGUCUUCCUCUGAUAGUGCUAAGGGGGCCUGGAAGUUUGGACUGGGCAGAGCUCAACACAGCGUGGCAAAGUGGCCGUGGCUAGGCUGCCUCUCUGGAUUCCUCGUCACUCAGCAGGGCAUCUCUGAGAGAAAUGCC | 0 |
| UACGUAGGUGGUCUUCCCCUGAUAGUGCUAAGGGGGCCUGGAAGUUUGGACUGGGCAGAGCUCAACACAGCGUGGAAAAGCGGCUGUGGCUAGACUGCCUCUCUGGAUUCCUCGUCACUCAGCAGGGCAUCUCUGAGAGAAAUGCC | 1.75 |
| UACGUAGGUGGUCUUCCCCUGAUAGUGCUAAGGGGGUCUGGAAGUUUGGACUGGGCAGAGCUCAACGCAGCGUGGCAAAGUGGCUGUGGCUAGGCUGCCUCUCUGGAUUCCUCGUCACUCAGCAGGGCAUCUCAGAGAGAAAUGCC | 0 |
| UACGUAGGUGGUCUUCCCUUGAUAGUGCUAAGGAGGCCUGGAAGUUUGGACUGGGCAGAGCUCAACACGGCGUGGCUAAGUGGCUGUGGCUAGCCUGCCUCUCUGGACUCCUCGUCACUCAGCAGGGCAUCUCUGAGAGAAAUGCC | 0.61 |
| UACGUAGGUGGUCUUCCCUUGAUAGUGCUAAGGGGGCCUGGAAGUUUGGACUGGGCAGAGCUCAACACAGCGUGGCAAAGUGGCUGUGGCUAGACUGCCUCUCUGGAUUCCUCGUCACUCUGCAGGGCAUCUCUGGGAGAAAUGCC | 0.69 |
| UACGUAGGUGGUCUUCCCCUGAUAGUGCUAAGGGGGCCUGGAAGUUUGGACUGGGCAGAGCUCAACAUAGCGUGGCAAAGUGGCUGUGGCUAGGCUGCCUCUCUGGAUUCCUCGUCACUCAGCAGGGCAUCUCUGAGAGAAAUGCC | 0.11 |
| UACGUAGGUGGUCUUCCCCUGAUAGUGCUAAGGGGGCCUGGAAGUUUGGACUGGGCAGAGCUCAACACAGCGUGGCAAAGUGGCUGUGGCUAGACUGCCUCUCUGGAUUCCUCGUCACUCAGCAGGGCUUCUCUGAGAGAAGUGCC | 0.58 |
| UACGUAGGUGGUCUUCCCUUGAUAGUGCUAAGGGGGCCUGGAAGUUUGGACUGGGCAGAGCCCAACACAGCGUGGCAAAGGGGCUGUGGCUAGACUGCCUCUCUGGAUUCCUCGUCACUCAGCAGGGCAUCUCUGAGAGAAAUGCC | 0.1 |
| UACGUAGGUGGUCUUCCCCUGAUAGUGCUAAGGGGGCCUGGAAGUUUGGACUGGGCAGAGCUCAACACAGCGUGGCAAAGUGGCUGUGGCUAGACUGCCUCUCUGGAUUCCUCGUCACUCAGCAGGGCAUCUCUGAGAGUAGUGCC | 1.87 |
| UACGUAGGUGGUCUUCCCCUGAUAGUGCUAAGGGGGCCUGGAAGUUUGGACUGGGCAGAGCUCAACACAGCGUGGCAAAGUGGCUGUGGCUAGACUGCCUCUCUGGAUUCCUCGUCACUCAGCUGGGCAUCUCUGAGGGAAAUGCC | 1.06 |
| UACGUAGGUGGUCUUCCCCUGAUAGUGCUAAGGGGGCCUGGAAGUUUGGACUGGGCAGAGCUCAACACAGCGUGGCAAAGUGGCUGUGGCUAGACUGCCUCUCUGGAUUCCUCGUCACUCAGCAGGGCGUCUCUGAGAGAAGUGCC | 2.3 |
| UACGUAGGUGGUCUUCCCCUGAUAGUGCUAAGGGGGCCUGGAAGUUUGGACUGGGCAGAGCUCAACACAGCGUGGCAAAGUGGCUGUGGCUAGACUGCCUCUCUGGCUACCUCGUCACUCAGCAGGGCAUCUCUGAGAGAAAUGCC | 1.71 |
| UACGUAGGUGGUCUUCCCCUGAUAGUGCUAAGGGGGCCUGGAAGUUUGGACUGGGCAGAGCUCAACACAGCGUGGCAAGGUGGCUGUGGCUAGACUGCCUCUCUGGAUUCCUCGUCACUCAGCAGGGCAUCUCUGAGAGGAAUGCC | 1.16 |

Reference: the RNAGym collection of RNA variant scans (doi:10.7554/elife.90254)
